The list shows a part of the results.
B1: PhoQ; a variant is named by its letters at X, in order, P23837 (parent)
chain: MKKLLRLFFPLSLRVRFLLATAAVVLVLSLAYGMVALIGYSVSFDKTTFRLLRGESNLFYTLAKWENNKLHVELPENIDKQSPTMTLIYDENGQLLWAQRDVPWLMKMIQPDWLKSNGFHEIEADVNDTSLLLSGDHSIQQQLQEVREDDDDAEMTHSVAVNVYPATSRMPKLTIVVVDTIPVELKSSYMVWSWFIYVLSANLLLVIPLLWVAAWWSLRPIEALAKEVRELEEHNRELLNPATTRELTSLVRNLNRLLKSERERYDKYRTTLTDLTHSLKTPLXXLQXXLRSLRSEKMSVSDAEPVMLEQISRISQQIGYYLHRASMRGGTLLSRELHPVAPLLDNLTSALNKVYQRKGVNISLDISPEISFVGEQNDFVEVMGNVLDNACKYCLEFVEISARQTDEHLYIVVEDDGPGIPLSKREVIFDRGQRVDTLRPGQGVGLAVAREITEQYEGKIVAGESMLGGARMEVIFGRQHSAPKDE

Variants of: B1
Experiment: enrichment ratio after two sorts for PhoP signalling (ratio (wild type AVST 3.29)); higher = more functional
Settings: with PhoP (E. coli)
In the case of HMFA, the enrichment ratio is reported as ≤ 0.25. For WFLY, the enrichment ratio was ≤ 0.25. For FRML, the enrichment ratio was ≤ 0.25. With MYYH the enrichment ratio was ≤ 0.25. PECT was tested, and the enrichment ratio was ≤ 0.25. With SKDK the enrichment ratio was ≤ 0.25. FHFG was tested, and the enrichment ratio was ≤ 0.25. For SIYL, the enrichment ratio was ≤ 0.25. Variant NPHV has an enrichment ratio of 0.966. RNNH was tested, and the enrichment ratio was ≤ 0.25. In the case of RWQI, the enrichment ratio is reported as ≤ 0.25. With DHAT the enrichment ratio was ≤ 0.25. MGGA gave an enrichment ratio of 24.1. YNHY was tested, and the enrichment ratio was ≤ 0.25. For ECDP, the enrichment ratio was ≤ 0.25. In the case of RVYF, the enrichment ratio is reported as ≤ 0.25. HKKA was tested, and the enrichment ratio was ≤ 0.25. With ALRY the enrichment ratio was ≤ 0.25. In the case of LWQQ, the enrichment ratio is reported as ≤ 0.25. With FAMM the enrichment ratio was 9.29. For DMHR, the enrichment ratio was ≤ 0.25. For MPFA, the enrichment ratio was ≤ 0.25. With GWPP the enrichment ratio was ≤ 0.25. With GHDI the enrichment ratio was ≤ 0.25. LPAM was tested, and the enrichment ratio was ≤ 0.25. In the case of RWCF, the enrichment ratio is reported as ≤ 0.25. In the case of WPTG, the enrichment ratio is reported as ≤ 0.25. NELY was tested, and the enrichment ratio was ≤ 0.25. With SPQE the enrichment ratio was ≤ 0.25. VEHI was tested, and the enrichment ratio was ≤ 0.25. With ADRN the enrichment ratio was ≤ 0.25. With DVGH the enrichment ratio was ≤ 0.25. For PIGL, the enrichment ratio was ≤ 0.25. With DLWY the enrichment ratio was ≤ 0.25. For HTRN, the enrichment ratio was ≤ 0.25. With QLFT the enrichment ratio was ≤ 0.25. In the case of FHGG, the enrichment ratio is reported as ≤ 0.25. In the case of VGGN, the enrichment ratio is reported as ≤ 0.25. With QFRQ the enrichment ratio was ≤ 0.25. In the case of MDGG, the enrichment ratio is reported as ≤ 0.25. In the case of TDSP, the enrichment ratio is reported as ≤ 0.25. In the case of QHAW, the enrichment ratio is reported as ≤ 0.25. In the case of AIGP, the enrichment ratio is reported as ≤ 0.25. SEVE was tested, and the enrichment ratio was 6.62. RTYG was tested, and the enrichment ratio was ≤ 0.25. HKTR was tested, and the enrichment ratio was ≤ 0.25. LTLI showed an enrichment ratio of 0.384. With PSCK the enrichment ratio was ≤ 0.25. Work on GEVM yielded an enrichment ratio of 13.6. ALMW was tested, and the enrichment ratio was ≤ 0.25. In the case of DTEQ, the enrichment ratio is reported as ≤ 0.25. In the case of EYQI, the enrichment ratio is reported as ≤ 0.25. With YAIS the enrichment ratio was ≤ 0.25. With EKGA the enrichment ratio was ≤ 0.25. For GCPF, the enrichment ratio was ≤ 0.25. With HLDY the enrichment ratio was ≤ 0.25. In the case of QRPA, the enrichment ratio is reported as ≤ 0.25. For TFYF, the enrichment ratio was ≤ 0.25. LCWK was tested, and the enrichment ratio was ≤ 0.25. TIEE was tested, and the enrichment ratio was ≤ 0.25. With LEKN the enrichment ratio was ≤ 0.25. In the case of YNAW, the enrichment ratio is reported as ≤ 0.25. In the case of PREC, the enrichment ratio is reported as ≤ 0.25. With SWDG the enrichment ratio was ≤ 0.25. With MDPA the enrichment ratio was ≤ 0.25. VGNE was tested, and the enrichment ratio was ≤ 0.25. With HDRD the enrichment ratio was ≤ 0.25. DDRL was tested, and the enrichment ratio was ≤ 0.25. VGHS was tested, and the enrichment ratio was ≤ 0.25. For HEDL, the enrichment ratio was ≤ 0.25. With RVTR the enrichment ratio was ≤ 0.25. For DMDV, the enrichment ratio was ≤ 0.25. With IVWK the enrichment ratio was ≤ 0.25. In the case of DWPW, the enrichment ratio is reported as ≤ 0.25. In the case of STSH, the enrichment ratio is reported as 8.84. For TTKT, the enrichment ratio was ≤ 0.25. AKCD was tested, and the enrichment ratio was 0.285. In the case of LKHF, the enrichment ratio is reported as ≤ 0.25. For DYAG, the enrichment ratio was ≤ 0.25. YALN gave an enrichment ratio of 10.5. In the case of YQTY, the enrichment ratio is reported as ≤ 0.25. VLYI was tested, and the enrichment ratio was ≤ 0.25. In the case of HQYC, the enrichment ratio is reported as ≤ 0.25. For SYRG, the enrichment ratio was ≤ 0.25. For QHVQ, the enrichment ratio was ≤ 0.25. In the case of SPAH, the enrichment ratio is reported as ≤ 0.25. With FTTA the enrichment ratio was ≤ 0.25. With HPMR the enrichment ratio was ≤ 0.25. In the case of VTHS, the enrichment ratio is reported as ≤ 0.25. For WDNH, the enrichment ratio was ≤ 0.25. For FDMT, the enrichment ratio was ≤ 0.25. For LEQY, the enrichment ratio was ≤ 0.25. For LVVK, the enrichment ratio was ≤ 0.25. In the case of VFNK, the enrichment ratio is reported as ≤ 0.25. For LSWY, the enrichment ratio was 2.49. VEQK was tested, and the enrichment ratio was ≤ 0.25. With APVE the enrichment ratio was ≤ 0.25. In the case of MYYL, the enrichment ratio is reported as ≤ 0.25. DSNF was tested, and the enrichment ratio was ≤ 0.25. With SRAN the enrichment ratio was ≤ 0.25. YESK was tested, and the enrichment ratio was ≤ 0.25. In the case of GPNP, the enrichment ratio is reported as ≤ 0.25. In the case of TWML, the enrichment ratio is reported as ≤ 0.25. AYEM was tested, and the enrichment ratio was ≤ 0.25. In the case of PDFI, the enrichment ratio is reported as ≤ 0.25. With GCPA the enrichment ratio was ≤ 0.25. NHCN was tested, and the enrichment ratio was ≤ 0.25. In the case of MIPA, the enrichment ratio is reported as ≤ 0.25. NPHM was tested, and the enrichment ratio was ≤ 0.25. For FWQC, the enrichment ratio was ≤ 0.25. For QLYE, the enrichment ratio was ≤ 0.25. For VFRR, the enrichment ratio was ≤ 0.25. In the case of MKWF, the enrichment ratio is reported as ≤ 0.25. For EWLL, the enrichment ratio was ≤ 0.25. In the case of YWLF, the enrichment ratio is reported as ≤ 0.25. DFLL was tested, and the enrichment ratio was ≤ 0.25. For ERLT, the enrichment ratio was ≤ 0.25. With ANRT the enrichment ratio was ≤ 0.25. EKEP was tested, and the enrichment ratio was ≤ 0.25. For RSNH, the enrichment ratio was ≤ 0.25. SKEM was tested, and the enrichment ratio was ≤ 0.25. With NSKW the enrichment ratio was ≤ 0.25.

Reference: a collection of fitness landscapes (doi:10.1126/science.1257360)
